According to the RNAGym collection of RNA variant scans (doi:10.1093/nar/gkz1192):
Read counts are not given, so values of variants with three or more changes are uncertain.

B1: CPEB3 Ribozyme (parent)
chain: UAACAGGGGGCCACAGCAGAAGCGUUCACGUCGCAGCCCCUGUCAGAUUCUGGUGAAUCUGCGAAUUCUGCUGUAUAUCUC

Variants of: B1
Test: self-cleavage, relative activity (ratio to wild type); higher = more cleavage; in vitro, sequencing
Method in brief: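 Barcoded CPEB3 ribozyme mutants, produced by rounds of error-prone PCR, self-cleaved while being transcribed with T7 RNA polymerase for 5 hours at 37°C and during a subsequent 15 min DNase I step before EDTA was added. Sequencing of template-switched cDNA on Illumina gave cleaved and total reads, and DNA sequencing assigned barcodes to variants. Each variant's relative activity is its cleaved/total read fraction divided by the unmutated ribozyme's fraction, averaged across three batches. A variant needed a minimum of 5 reads.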
Work on U1A A20G U31C A56G U69C U78A yielded a self-cleavage of 0.06.
With U1A A3U A20G the self-cleavage was 1.
For U1A U67C A75U, the self-cleavage was 0.32.
Variant U1C A2G U43A U49C A65G C71G has a self-cleavage of 0.13.
U1A A18U U31A U48G A64U C81A showed a self-cleavage of 0.05.
Variant U1A A13G C39G has a self-cleavage of 0.28.
With U1A U66C U74C the self-cleavage was 0.71.
For U1A G42A U72A, the self-cleavage was 0.11.
In the case of U1C A2G A18C A21U C44U A56C U80A, the self-cleavage is reported as 0.05.
U1A A28U U60C A65G U67C U78G showed a self-cleavage of 0.08.
U1A C44U C62A gave a self-cleavage of 0.19.
Variant U1A A3G A18G A35G U41A U54C A77G has a self-cleavage of 0.33.
U1C A2U C12U G19U U41C G46A U60A gave a self-cleavage of 0.15.
Work on U1C A2C C12G yielded a self-cleavage of 0.47.
For U1A A35U U48C G53A, the self-cleavage was 0.21.
Work on U1A U49A A64G A75G yielded a self-cleavage of 0.18.
Work on U1A A28G A45G yielded a self-cleavage of 0.3.
In the case of U1A A13G G24A, the self-cleavage is reported as 0.15.
U1C A2G U25C U51A A56G A64G showed a self-cleavage of 0.28.
U1A A35C C40U gave a self-cleavage of 0.23.
Variant U1A C14G U25A C29G A64U has a self-cleavage of 0.04.
U1A A21U U41C U51C U78C gave a self-cleavage of 0.11.
Variant U1A G19U G30C G36A has a self-cleavage of 0.06.
For U1A A45U U80G, the self-cleavage was 0.48.
For U1A A35U U41C, the self-cleavage was 0.36.
U1A G9A C11U A28U U54C G70U U78A showed a self-cleavage of 0.04.
Work on U1A A5G A57G A64U yielded a self-cleavage of 0.53.
U1C A2G C12A A13G U69C gave a self-cleavage of 0.2.
U1A A5G A15G A64U gave a self-cleavage of 0.48.
In the case of U1A U67A A75C U80A, the self-cleavage is reported as 0.46.
Variant U1C A2U A18C C37A U60C has a self-cleavage of 0.05.
With U1C A2U A21G C40A G42A U78C the self-cleavage was 0.07.
Variant U1A A15U C59G U66C has a self-cleavage of 0.14.
U1A A5G A20G U43C U58C U67A showed a self-cleavage of 0.11.
For U1A A21G U78C, the self-cleavage was 0.63.
Variant U1A A13U U43G has a self-cleavage of 0.19.
U1A U43C U76C showed a self-cleavage of 0.63.
For U1A A5G C27A U49A U54C U69C, the self-cleavage was 0.22.
U1A U26C A28C gave a self-cleavage of 0.08.
U1A A18U U66C gave a self-cleavage of 0.2.
Variant U1A A18U U60C A75U U80C has a self-cleavage of 0.2.
With U1A A2G G6A U41C U78C the self-cleavage was 0.46.
U1A C27A A35U U60C gave a self-cleavage of 0.07.
In the case of U1A G24U U41C, the self-cleavage is reported as 0.28.
For U1A U51C A57G A64U, the self-cleavage was 0.13.
In the case of U1A A2G C11U U67G, the self-cleavage is reported as 0.05.
Work on U1A A20C C34U G61C U80G yielded a self-cleavage of 0.04.
U1A A47U U74A showed a self-cleavage of 0.34.
U1A A20G U43G showed a self-cleavage of 0.38.
For U1A U26C U41A U49C, the self-cleavage was 0.07.
U1A U41C U51C U60C gave a self-cleavage of 0.25.
U1A U43A U48C U51C C68U U78C showed a self-cleavage of 0.34.
For U1A A28G U41C U58C A77U, the self-cleavage was 0.14.
For U1A U41G A57G A77G, the self-cleavage was 0.19.
Work on U1A A21G C29G C38A A45U U51G U72C yielded a self-cleavage of 0.11.
In the case of U1A A18U U49C, the self-cleavage is reported as 0.09.
U1A A35G A45G C62U G63U showed a self-cleavage of 0.23.
U1A A64G A65G showed a self-cleavage of 0.17.
U1A A13U G53A U67A U72C showed a self-cleavage of 0.29.
U1C A2G A5G U25C A45U U69G gave a self-cleavage of 0.42.
In the case of U1A A13U A20G U80C, the self-cleavage is reported as 1.09.
Variant U1A U72C U74C has a self-cleavage of 1.2.
For U1A G19C U41C, the self-cleavage was 0.17.
U1A A15G U51A gave a self-cleavage of 0.97.
Work on U1A A18G A65G yielded a self-cleavage of 0.34.
Work on U1A A3G A20U U26C U72C yielded a self-cleavage of 0.19.
In the case of U1A U25C U26C A35U U60C, the self-cleavage is reported as 0.13.
Variant U1A C12U U41C A57U A64G U67A has a self-cleavage of 0.31.
Work on U1A A3C C23A U72A yielded a self-cleavage of 0.32.
U1A U67G U69C U80A showed a self-cleavage of 0.32.
Work on U1A A5G U43A U51G A57G yielded a self-cleavage of 0.45.
Work on U1A C39A U48C yielded a self-cleavage of 0.1.
In the case of U1A A2C C17A U25C A35G G52A, the self-cleavage is reported as 0.08.
Variant U1A G9U U26G A35G U41C A45G has a self-cleavage of 0.25.
Variant U1A A3G U25C C32U A35U A47G has a self-cleavage of 0.11.
Work on U1A A20G U67C U78A yielded a self-cleavage of 0.39.
For U1A C23U C32A U69A U74C U78C, the self-cleavage was 0.12.
U1A U41C A56G A57U U60A showed a self-cleavage of 0.22.
Variant U1A A35G C40U has a self-cleavage of 1.24.
Variant U1A A15G U41C U60A G73A U74C has a self-cleavage of 0.32.
In the case of U1A A18U U26C G36C U69C, the self-cleavage is reported as 0.06.
Work on U1A C11G A28G U69C A75G yielded a self-cleavage of 0.07.
U1A C11G A13U A28U U72C gave a self-cleavage of 0.76.
With U1A U48C U51C A57G U67C the self-cleavage was 0.17.
For U1A U69C U72C, the self-cleavage was 0.36.
Variant U1A A15G C29A has a self-cleavage of 0.62.
U1A G24A A57G gave a self-cleavage of 0.25.
With U1A A5G A15U A45G U48C U80C the self-cleavage was 0.06.
In the case of U1A C29U U49C A57G U66C, the self-cleavage is reported as 0.16.
For U1A A20G U26A U69C, the self-cleavage was 0.44.
U1A G10C A28G U31C A35U A45G U69A gave a self-cleavage of 0.14.
Variant U1C A2C U54C C59A C71U has a self-cleavage of 0.12.
For U1A A3G A21G A75G, the self-cleavage was 0.75.
For U1A U25C U69C, the self-cleavage was 0.26.
In the case of U1A U58C U72C U76A, the self-cleavage is reported as 0.44.
Variant U1A A28U A35G A65G U67C U78G has a self-cleavage of 0.44.
Work on U1A U31C U69C yielded a self-cleavage of 0.41.
With U1C A2U A13U U26C A28U U67C the self-cleavage was 0.06.
Work on U1A A3C C27A U60C G61C yielded a self-cleavage of 0.2.
In the case of U1A U60A A64G U80C, the self-cleavage is reported as 0.42.
Variant U1A A18U U25C A65G has a self-cleavage of 0.14.
For U1A A13G A35G, the self-cleavage was 0.59.
In the case of U1C A2G A15G C29A A57G C62A, the self-cleavage is reported as 0.09.
For U1C A2U A13G A20U, the self-cleavage was 0.14.
Variant U1A A18G G30A A57G has a self-cleavage of 0.22.
U1C A2G G6A C14A C34G U51C showed a self-cleavage of 0.05.
Variant U1A A47G U80C has a self-cleavage of 1.1.
Work on U1A A2G A35G U54A A65U U67A yielded a self-cleavage of 0.89.
U1A A57U A64G showed a self-cleavage of 0.44.
Work on U1A G6U C11U U25C yielded a self-cleavage of 0.19.
Variant U1A G9U A21G U25C U26C U31A A45G has a self-cleavage of 0.57.
In the case of U1A C32U G52C G53U U60A, the self-cleavage is reported as 0.09.
Variant U1C A2U U60C has a self-cleavage of 0.17.
Variant U1A A13U A15G A21G C32U A35C U80C has a self-cleavage of 0.47.
In the case of U1A U26C U58C U80C, the self-cleavage is reported as 0.33.
With U1C A2G A20G C23U U43C the self-cleavage was 0.41.
In the case of U1A G8A A15G U72C, the self-cleavage is reported as 0.1.
Variant U1A A15C U54A has a self-cleavage of 0.75.
U1A G7A A15G U41A U48C A57G showed a self-cleavage of 0.07.
U1A A21U A28G gave a self-cleavage of 0.22.
With U1A A13U C50U U58G the self-cleavage was 0.34.
In the case of U1A U31C A65G U69G U78C, the self-cleavage is reported as 0.14.
In the case of U1A A20G A28G C32G U72C, the self-cleavage is reported as 0.08.
With U1A A13U A15G A28G G73A the self-cleavage was 1.06.
With U1A C14A U25A C29G G63A the self-cleavage was 0.17.
For U1A C17A U25C U43C C50U, the self-cleavage was 0.07.
Variant U1A A2U U60C U69G has a self-cleavage of 0.42.
With U1A C17U C38U U69C the self-cleavage was 0.08.
For U1A A5U A18G A56G U58C U72C U76A, the self-cleavage was 0.23.
In the case of U1C A2G U69C C81U, the self-cleavage is reported as 0.22.
For U1A A75U A77U, the self-cleavage was 1.16.
Variant U1A U41C U72C U80C has a self-cleavage of 1.22.
Variant U1A A20G U58C U66A U76A has a self-cleavage of 0.05.
Variant U1A C39U U76C has a self-cleavage of 0.82.
U1A A28G U49A U51C G70U gave a self-cleavage of 0.14.
U1A U25C U48C U67C U78C gave a self-cleavage of 0.08.
For U1A A5G A65C, the self-cleavage was 0.31.
Work on U1A A15U A57G yielded a self-cleavage of 0.51.
Work on U1A A18G C38U U51A yielded a self-cleavage of 0.39.
U1C A2U A18G U51A A64U A65G C68A gave a self-cleavage of 0.2.
U1C A2U U74C gave a self-cleavage of 0.59.
U1A C12U U26A A56U U67C U80C showed a self-cleavage of 0.24.
Work on U1A C39U G53U A64U yielded a self-cleavage of 0.13.
In the case of U1A C38G U51A U72C, the self-cleavage is reported as 0.08.
U1A A13G C14G U43A showed a self-cleavage of 0.79.
Work on U1A A28U G70C A75U yielded a self-cleavage of 0.17.
Variant U1A U41A U51A has a self-cleavage of 0.12.
U1A C11G U26A gave a self-cleavage of 0.49.
In the case of U1A G55A U66C, the self-cleavage is reported as 0.25.
Work on U1A C23G U25C U60G A64U yielded a self-cleavage of 0.06.
U1A A3U A28G gave a self-cleavage of 1.03.
In the case of U1A A18G U43A, the self-cleavage is reported as 0.98.
Variant U1A U31C U72C U78C has a self-cleavage of 0.92.
U1A G24A U25C A57U gave a self-cleavage of 0.18.
For U1A G9A G52A, the self-cleavage was 0.08.
For U1A A13G A21G A47G A65G, the self-cleavage was 0.16.
U1A A21G A47G U49C A65G U78A gave a self-cleavage of 0.2.
With U1A A21G U41A C68A the self-cleavage was 0.06.
With U1A A47G G52A the self-cleavage was 0.94.
Work on U1A A28U U41C yielded a self-cleavage of 0.99.
Work on U1A A28G A57G yielded a self-cleavage of 0.34.
U1A A13U A47G showed a self-cleavage of 1.24.
With U1A A20U U72G the self-cleavage was 0.18.
U1A A20G A28U U67C showed a self-cleavage of 0.29.
Work on U1A A21G C62U yielded a self-cleavage of 0.26.
Work on U1A C11U U54A yielded a self-cleavage of 0.44.
In the case of U1A A28G G42A, the self-cleavage is reported as 0.14.
